Data: article PMC4336329 (PLoS ONE, 2015)
Screen size: about 310,000 compounds; about 14,000 (4.5%) showed an effect of 50% or more. The effect is printed as a negative number. Some of the results follow.

These compounds were tested against human ether-à-go-go-related gene (hERG) potassium channel (human, UniProt Q12809) (assay: primary screen, population patch clamp on CHO cells stably expressing hERG).
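Also: peak tail current of the secondary pulse compared with the same well before compound.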

Sequence of human ether-à-go-go-related gene (hERG) potassium channel (Q12809 whole entry, looked up): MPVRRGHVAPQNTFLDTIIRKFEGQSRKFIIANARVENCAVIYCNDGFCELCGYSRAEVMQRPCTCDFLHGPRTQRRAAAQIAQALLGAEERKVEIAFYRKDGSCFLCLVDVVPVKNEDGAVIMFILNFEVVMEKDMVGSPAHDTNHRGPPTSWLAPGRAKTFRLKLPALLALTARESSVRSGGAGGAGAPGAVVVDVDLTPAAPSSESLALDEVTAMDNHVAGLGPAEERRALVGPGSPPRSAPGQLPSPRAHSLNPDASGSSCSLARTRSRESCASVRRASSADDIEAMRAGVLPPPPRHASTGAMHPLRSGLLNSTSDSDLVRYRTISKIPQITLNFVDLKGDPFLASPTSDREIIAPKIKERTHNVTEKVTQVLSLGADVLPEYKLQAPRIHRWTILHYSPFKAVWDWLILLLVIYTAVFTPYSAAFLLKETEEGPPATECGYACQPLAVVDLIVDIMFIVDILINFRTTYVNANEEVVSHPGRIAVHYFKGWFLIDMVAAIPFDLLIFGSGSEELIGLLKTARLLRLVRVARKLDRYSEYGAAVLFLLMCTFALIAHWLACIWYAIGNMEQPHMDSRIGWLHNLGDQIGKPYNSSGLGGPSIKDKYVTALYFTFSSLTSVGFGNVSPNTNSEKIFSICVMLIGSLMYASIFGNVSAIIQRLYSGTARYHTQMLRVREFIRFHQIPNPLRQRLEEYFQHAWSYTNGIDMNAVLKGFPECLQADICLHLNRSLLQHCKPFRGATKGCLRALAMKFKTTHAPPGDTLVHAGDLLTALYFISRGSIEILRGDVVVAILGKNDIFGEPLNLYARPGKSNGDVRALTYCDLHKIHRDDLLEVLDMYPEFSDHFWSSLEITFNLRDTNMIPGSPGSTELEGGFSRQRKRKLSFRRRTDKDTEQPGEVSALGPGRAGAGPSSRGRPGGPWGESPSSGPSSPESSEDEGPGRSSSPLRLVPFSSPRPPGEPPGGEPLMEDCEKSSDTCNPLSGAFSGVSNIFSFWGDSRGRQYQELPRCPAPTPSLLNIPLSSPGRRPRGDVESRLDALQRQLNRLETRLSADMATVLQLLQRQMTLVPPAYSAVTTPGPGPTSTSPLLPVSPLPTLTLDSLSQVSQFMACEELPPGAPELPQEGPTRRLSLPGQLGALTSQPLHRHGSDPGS

Structure (SMILES)	hERG current change (%, negative = inhibition) at 10uM [%]
CCCN1CCN(CCCNC(=O)C(CC)n2nc(C)n3c(cc4occc43)c2=O)CC1 (stereo not drawn)	16.1
N/C(COc1ccc(C(=O)O)cc1)=N\O	-4.67
CC(C)Oc1ccc(C(CC(=O)O)NC(=O)C(Sc2ccccc2)c2ccccc2)cc1 (stereo not drawn)	0.474
O=C(Nc1ccc(NC(=O)c2cccs2)cc1Cl)c1ccco1	12.1
CCCC(C(=O)NCC1CCCO1)N(Cc1ccco1)C(=O)CNS(=O)(=O)c1ccc(F)cc1 (stereo not drawn)	-1.21
CN(C)S(=O)(=O)c1cccc(NC(=O)COC(=O)CCSc2ccc(Cl)cc2)c1	-15.5
O=[N+]([O-])CC(=Nc1ccc(F)cc1)N/N=C\c1oc(O)c2ccccc12	-0.338
Cc1ccc(S(=O)(=O)N2CCC(C(=O)N3CCN(c4ccccn4)CC3)CC2)cc1	-19.4
CC(C)=C(NC(=O)c1ccccc1)C(=O)N/N=C(\C)c1ccccc1O	35.7
O=C(CN(C(=O)CNC(=O)c1ccco1)c1cccc(F)c1)NC1CCCCC1	4.58
C=CCn1c(SCC(=O)N(CC)C2CCS(=O)(=O)C2)nc2ccccc2c1=O (stereo not drawn)	-79.2
Cc1c(C(=O)N(CC(C)C)c2c(N)n(Cc3ccccc3)c(=O)[nH]c2=O)sc2nc3n(c(=O)c12)CCC3	7.27
Cc1cc2[nH]c(=O)c(=O)[nH]c2cc1S(=O)(=O)N(C)C1CCCCC1	19.9
CN(C)C(=S)NC(C)(C)C	4.89
Cc1cc(C)c2oc(C(=O)N(Cc3cccs3)C3CCS(=O)(=O)C3)cc(=O)c2c1 (stereo not drawn)	-15.1
O=C(CNC(=O)c1ccco1)N/N=C/c1cccs1	14.9
CCNC(=S)N=Nc1c(O)[nH]c2ccc([N+](=O)[O-])cc12	-7.01
Clc1cccc(/C(Cc2nc3ccccc3[nH]2)=N\Nc2ccccc2)c1	22.1
CCc1ccc(C(=O)COC(=O)C(CCSC)NC(=O)C23CC4CC(CC(C4)C2)C3)cc1 (stereo not drawn)	10.9
COCCNC(=O)C(=O)NNC(=O)CCc1ccccc1	8.78
CCCCCN(C(=O)CCC(=O)OCC(=O)c1cccc(OC)c1)c1c(N)n(CCCC)c(=O)[nH]c1=O	-64.6
CCCCCCC[C@H](N)[C@H](O)C(=O)N(C)[C@@H](CCS(C)=O)C(=O)N[C@@H](Cc1ccc(O)cc1)C(=O)N[C@@H](Cc1ccc(O)cc1)C(=O)O (stereo partly drawn)	8.09
COc1ccccc1CNC(=O)COC(=O)c1ccc(Cl)c(N)c1	21.8
Nc1nnc(SCC(=O)OCc2ccccc2)s1	9.61
CN1c2ccc([N+](=O)[O-])cc2CC2(C(=O)NC(=O)NC2=O)C1c1ccccc1 (stereo not drawn)	1.14
Cc1noc(C)c1COC(=O)c1ccc2c(c1)OCCO2	-13.8
COCCn1c(SCC(=O)NCc2ccco2)nnc1C(C)C	20.4

Structure (SMILES)	hERG current change (%, negative = inhibition) at 10uM [%]
CCOC(=O)c1ccc(OCc2nc(-c3cccs3)no2)cc1	-1.94
Cc1ccc(C(=O)Nc2nc3ccccc3c(=O)s2)cc1	15.9
COCCCNC(=O)CN1CCN(Cc2ccccc2Cl)C1=O	27.2
Cc1cccc2c1OCC/C2=N\NC(=O)COc1ccccc1Cl	17.2
Cc1cc(C(=O)Cn2nnc3ccccc3c2=O)c(C)n1-c1c(C)n(C)n(-c2ccccc2)c1=O	4.69
CCCNC(=O)N1CCN(c2ncccn2)CC1	10.4
CCOC(=O)N1CCN(c2c(Nc3cc(C)[nH]n3)c(=O)c2=O)CC1	9.42
Cc1c(C(=O)N2CCCCC2)c(S(=O)(=O)NCc2ccc(F)cc2)c(C)n1C	7.64
Cc1cc(COc2ccccc2OCc2cc(C)no2)on1	6.73
COc1ccc(C2/C(=C(/O)c3ccccc3)C(=O)C(=O)N2CCO)cc1 (stereo not drawn)	-21.1
COCCn1c(CN2CCN(c3cccc(Cl)c3)CC2)nc2c1c(=O)n(C)c(=O)n2C	-53.9
Cc1cc([N+](=O)[O-])nn1CC(=O)N(C)Cc1ccccc1	13.7
Cc1nc2ccc(C(=O)Nc3ccc(N(C)C)cc3)cc2s1	6.94
Cc1cc(C)c2nc(-c3ccccn3)cc(C(=O)NCc3ccco3)c2c1	11.2
Oc1ccc2nnc3c(Br)cnn3c2c1	19.2
O=C(c1cc(F)c(F)cc1Cl)N1CCN(CCc2ccccc2)CC1	-71.6
O=C(CSc1nnc(SCc2ccc(Cl)cc2)s1)N/N=C/c1ccccc1C(=O)O	4.17
Cc1ccc(-n2c(C)cc(C(=O)COc3cccnc3[N+](=O)[O-])c2C)cc1	11.2
C[C@]12C(=O)N(c3ccc(Br)cc3)C(=O)N1[C@@H]1c3ccccc3OC[C@@H]1[C@H]2c1ccccc1	33.6
O=C(NC(=O)c1ccccc1)Nc1ccccc1O	14.7
COc1ccccc1N1CCc2c(C)nc3c(OC)cccc3c21	-61
Cc1cc(C)cc(NS(=O)(=O)c2cc3[nH]c(=O)c(=O)[nH]c3cc2C)c1	6.15
COc1ccc(C(=O)NCC(=O)OC2CCCCC2=O)cc1 (stereo not drawn)	-13.5
COc1ccc([N+](=O)[O-])cc1N(CC(=O)Nc1ccccc1C(=O)NC(C)C)S(C)(=O)=O	20.9
COCCn1c(SCC(=O)c2c[nH]c3ccccc23)nnc1-c1ccncc1	-13.3
COCCNC(=O)Cn1cnc2sc(C)c(S(=O)(=O)N3CCC(C)CC3)c2c1=O	8.9
COc1ccc(NC(=O)N2CCCCCC2)cc1OC	12.7
